The values below come from publication PMC5892938.

Some of the results follow. At the low end of the ranking the order means little.

The test concerns the target GST-SBP-SLBP (stem-loop binding protein) (UniProt Q14493). Nature of the test: targeted RNA Bind-n-Seq.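 Further: DESeq read counts versus GST-SBP nonspecific binding control pulldown.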 As to conditions: RBNS binding buffer: 25 mM Tris pH 7.5, 150 mM KCl, 3 mM MgCl2, 0.1% Tween, 0.5 mg/mL BSA, 1 mM DTT; 27 nM protein, 750 pM RNA pool; temperature not stated; high values mean tight binding.
As for “GGUCACGUCUCAAUCAACUCAUUCUCCAGGGAAAGCCCUGGCUAAUUCAACAGCUCGCAGUCAAG”, the binding signal (log2 fold change) was -0.0647.
With “GGUCACGUCUCAAUCAACUCAUCUCCCAGGGAAACCCCUGGCUAAUUCAACAGCUCGCAGUCAAG”, the binding signal (log2 fold change) was -0.0708.
For “GGUCACGUCUCAAUCAACUCAUACGAGGGGGGGAAAACCCCUUUGCCCUCAUUAUCAACAGCUCGCAGUCAAG” the value was -0.421.
Turning to “GGUCACGUCUCAAUCAACUCAAAAGAGGGGGGGAAAACCCCUUUGCCCUCAAAAUCAACAGCUCGCAGUCAAG”, the binding signal (log2 fold change) is -0.113.
In the case of “GGUCACGUCUCAAUCAACUCUAUCUCAGGAGUUUCCUCCUGUAAUUUCAACAGCUCGCAGUCAAG”, the binding signal (log2 fold change) stood at 0.21.
“GGUCACGUCUCAAUCAACUCCCAAGAGGGGGGGAAAACCCCUUUGCCCUCGUAAUCAACAGCUCGCAGUCAAG”: the binding signal (log2 fold change) stood at 0.27.
For “GGUCACGUCUCAAUCAACUCAAACGAGGGGGGGAAAACCCCUUUACCCUCAAUAUCAACAGCUCGCAGUCAAG” the value was -0.192; for “GGUCACGUCUCAAUCAACUCUAUCCCCAGGGAAAACCCUGGCUUUUUCAACAGCUCGCAGUCAAG”, -0.0301.
Turning to “GGUCACGUCUCAAUCAACUCAUUCCCCAGGGAAAACCCUGGCAUACUCAACAGCUCGCAGUCAAG”, the binding signal (log2 fold change) is -0.117.
For “GGUCACGUCUCAAUCAACUCUUUCGCAGGAGUUUACUCCUGGUUUCUCAACAGCUCGCAGUCAAG”, the binding signal (log2 fold change) is -0.00289.
With “GGUCACGUCUCAAUCAACUCCUCAGAGGGGGGGAAAACCCCUUUACCCUCGUAUUCAACAGCUCGCAGUCAAG”, the binding signal (log2 fold change) is -0.124.
On to “GGUCACGUCUCAAUCAACUCAAUUUCCAGGGAAAACCCUGGCUUAUUCAACAGCUCGCAGUCAAG”, for which the binding signal (log2 fold change) was 0.0437.
As to “GGUCACGUCUCAAUCAACUCCUUCGAGGGGGGGAAAACCCCUUUACCCUCACCUUCAACAGCUCGCAGUCAAG”, the binding signal (log2 fold change) was found to be 0.36.
In the case of “GGUCACGUCUCAAUCAACUCAAUCUCAGGAGUUUGCUCCUGUUUACUCAACAGCUCGCAGUCAAG”, the binding signal (log2 fold change) was 0.241.
On to “GGUCACGUCUCAAUCAACUCAUCCCCCAGGGAAACCCCUGGCAAUCUCAACAGCUCGCAGUCAAG”, for which the binding signal (log2 fold change) came to 0.113.
Next, “GGUCACGUCUCAAUCAACUCAGUCCCCAGGGAAAUCCCUGGCAAAUUCAACAGCUCGCAGUCAAG”: -0.1; “GGUCACGUCUCAAUCAACUCUUUUUCAGGAGUUUUCUCCUGCUUUGUCAACAGCUCGCAGUCAAG”: -0.0102.
“GGUCACGUCUCAAUCAACUCAUUUUCAGGAGUUUUCUCCUGUUUACUCAACAGCUCGCAGUCAAG”: the binding signal (log2 fold change) is -0.0305.
Next, “GGUCACGUCUCAAUCAACUCAAUCUCCAGGGAAAUCCCUGGUUAUCUCAACAGCUCGCAGUCAAG”: 0.281; “GGUCACGUCUCAAUCAACUCUCAAGAGGGGGGGAAAACCCCUUUACCCUCCACGUCAACAGCUCGCAGUCAAG”: 0.018; “GGUCACGUCUCAAUCAACUCUUUCCCAGGAGUUUACUCCUGCUAUUUCAACAGCUCGCAGUCAAG”: 0.0801.
In the case of “GGUCACGUCUCAAUCAACUCUUUUUCCAGGGAAAACCCUGGCAUACUCAACAGCUCGCAGUCAAG”, the binding signal (log2 fold change) was found to be 0.224.
As to “GGUCACGUCUCAAUCAACUCUAUCUCAGGAGUUUUCUCCUGUUAUUUCAACAGCUCGCAGUCAAG”, the binding signal (log2 fold change) is -0.0388.
Regarding “GGUCACGUCUCAAUCAACUCUAUAGAGGGGGGGAAAACCCCUUUACCCUCAUUUUCAACAGCUCGCAGUCAAG”, the binding signal (log2 fold change) was -0.08.
In the case of “GGUCACGUCUCAAUCAACUCAUCCUCAGGAGUUUGCUCCUGUAAAUUCAACAGCUCGCAGUCAAG”, the binding signal (log2 fold change) was found to be 0.11.
As for “GGUCACGUCUCAAUCAACUCUUUCUCCAGGGAAAACCCUGGCUUUUUCAACAGCUCGCAGUCAAG”, the binding signal (log2 fold change) is -0.0594.
As to “GGUCACGUCUCAAUCAACUCUUUCUCCAGGGAAAUCCCUGGCUAACUCAACAGCUCGCAGUCAAG”, the binding signal (log2 fold change) was 0.041.
For the sequence “GGUCACGUCUCAAUCAACUCAUUUCCCAGGGAAAGCCCUGGCUAUCUCAACAGCUCGCAGUCAAG”, the binding signal (log2 fold change) amounted to 0.0624.
Take “GGUCACGUCUCAAUCAACUCAUUCUCCAGGGAAAUCCCUGGCUAUCUCAACAGCUCGCAGUCAAG”: the binding signal (log2 fold change) is 0.0128.
As for “GGUCACGUCUCAAUCAACUCAUUCCCCAGGGAAAACCCUGGUUAUUUCAACAGCUCGCAGUCAAG”, the binding signal (log2 fold change) was -0.00122.
“GGUCACGUCUCAAUCAACUCAGUCUCAGGAGUUUACUCCUGUAUUUUCAACAGCUCGCAGUCAAG”: the binding signal (log2 fold change) was -0.099.
For “GGUCACGUCUCAAUCAACUCAAUCUCAGGAGUUUGCUCCUGCAAUCUCAACAGCUCGCAGUCAAG”, the binding signal (log2 fold change) is -0.0263.
For the sequence “GGUCACGUCUCAAUCAACUCUUUCUCCAGGGAAAACCCUGGCUAAUUCAACAGCUCGCAGUCAAG”, the binding signal (log2 fold change) came to 0.0251.
“GGUCACGUCUCAAUCAACUCUACUUCCAGGGAAAGCCCUGGUAUUCUCAACAGCUCGCAGUCAAG”: the binding signal (log2 fold change) was -0.225.
Next, “GGUCACGUCUCAAUCAACUCAAUCCCCAGGGAAAUCCCUGGCAAAUUCAACAGCUCGCAGUCAAG”: -0.111.
Next, “GGUCACGUCUCAAUCAACUCCUUCGAGGGGGGGAAAACCCCUUUACCCUCUAUCUCAACAGCUCGCAGUCAAG”: -0.208.
For “GGUCACGUCUCAAUCAACUCAUUUUCAGGAGUUUACUCCUGCAAUCUCAACAGCUCGCAGUCAAG” the value was 0.102.
In the case of “GGUCACGUCUCAAUCAACUCAUCCCCAGGAGUUUCCUCCUGUAUAUUCAACAGCUCGCAGUCAAG”, the binding signal (log2 fold change) was determined as 0.226.
For “GGUCACGUCUCAAUCAACUCACAAGAGGGGGGGAAAACCCCUUUACCCUCAUCGUCAACAGCUCGCAGUCAAG” the value was -0.251.
In the case of “GGUCACGUCUCAAUCAACUCCCCAGAGGGGGGGAAAACCCCUUUACCCUCGUCAUCAACAGCUCGCAGUCAAG”, the binding signal (log2 fold change) is -0.486.
For the sequence “GGUCACGUCUCAAUCAACUCUUUCUCCAGGGAAAGCCCUGGUUUUCUCAACAGCUCGCAGUCAAG”, the binding signal (log2 fold change) stood at 0.042.
Next, “GGUCACGUCUCAAUCAACUCUUCGUCCAGGGAAACCCCUGGCUAAUUCAACAGCUCGCAGUCAAG”: -0.0179; “GGUCACGUCUCAAUCAACUCAUUAGAGGGGGGGAAAACCCCUUUGCCCUCAUUCUCAACAGCUCGCAGUCAAG”: 0.167.
Take “GGUCACGUCUCAAUCAACUCUUUUCCCAGGGAAACCCCUGGUUUAUUCAACAGCUCGCAGUCAAG”: the binding signal (log2 fold change) was 0.0755.
Take “GGUCACGUCUCAAUCAACUCUAUCUCCAGGGAAAUCCCUGGCAUUUUCAACAGCUCGCAGUCAAG”: the binding signal (log2 fold change) is -0.075.
For the sequence “GGUCACGUCUCAAUCAACUCUACUCCCAGGGAAACCCCUGGCAUAUUCAACAGCUCGCAGUCAAG”, the binding signal (log2 fold change) was -0.0245.
For “GGUCACGUCUCAAUCAACUCUAUUUCAGGAGUUUUCUCCUGCUAUCUCAACAGCUCGCAGUCAAG”, the binding signal (log2 fold change) was -0.0208.
With “GGUCACGUCUCAAUCAACUCAUCUCCAGGAGUUUCCUCCUGCAAUCUCAACAGCUCGCAGUCAAG”, the binding signal (log2 fold change) stood at 0.0805.
Next, “GGUCACGUCUCAAUCAACUCCCACGAGGGGGGGAAAACCCCUUUACCCUCACACUCAACAGCUCGCAGUCAAG”: 0.366; “GGUCACGUCUCAAUCAACUCUAUCCCCAGGGAAAUCCCUGGCUUACUCAACAGCUCGCAGUCAAG”: -0.0776; “GGUCACGUCUCAAUCAACUCCCACGAGGGGGGGAAAACCCCUUUACCCUCAACAUCAACAGCUCGCAGUCAAG”: 0.0694.
As for “GGUCACGUCUCAAUCAACUCAAUUCCAGGAGUUUCCUCCUGUAUAUUCAACAGCUCGCAGUCAAG”, the binding signal (log2 fold change) came out at 0.0916.
On to “GGUCACGUCUCAAUCAACUCAAUUUCAGGAGUUUCCUCCUGUUUACUCAACAGCUCGCAGUCAAG”, for which the binding signal (log2 fold change) was found to be 0.109.
As to “GGUCACGUCUCAAUCAACUCAUUUUCCAGGGAAAGCCCUGGCUAUUUCAACAGCUCGCAGUCAAG”, the binding signal (log2 fold change) is -0.187.
On to “GGUCACGUCUCAAUCAACUCUAUUCCCAGGGAAAUCCCUGGUUUUCUCAACAGCUCGCAGUCAAG”, for which the binding signal (log2 fold change) was -0.18.
In the case of “GGUCACGUCUCAAUCAACUCUUUUCCCAGGGAAAGCCCUGGCUUUCUCAACAGCUCGCAGUCAAG”, the binding signal (log2 fold change) was 0.234.
Regarding “GGUCACGUCUCAAUCAACUCUUUUCCCAGGGAAACCCCUGGCUAUGUCAACAGCUCGCAGUCAAG”, the binding signal (log2 fold change) is -0.031.
For “GGUCACGUCUCAAUCAACUCAUUCUCAGGAGUUUACUCCUGCUUAGUCAACAGCUCGCAGUCAAG”, the binding signal (log2 fold change) came to 0.121.
As to “GGUCACGUCUCAAUCAACUCAUCCCCAGGAGUUUUCUCCUGCUAUCUCAACAGCUCGCAGUCAAG”, the binding signal (log2 fold change) came out at 0.0245.
For the sequence “GGUCACGUCUCAAUCAACUCUUCUCCAGGAGUUUCCUCCUGUAAAUUCAACAGCUCGCAGUCAAG”, the binding signal (log2 fold change) came to 0.222.
For “GGUCACGUCUCAAUCAACUCACUAGAGGGGGGGAAAACCCCUUUACCCUCAUCUUCAACAGCUCGCAGUCAAG” the value was 0.00853; for “GGUCACGUCUCAAUCAACUCACACGAGGGGGGGAAAACCCCUUUACCCUCACAAUCAACAGCUCGCAGUCAAG”, 0.0588; for “GGUCACGUCUCAAUCAACUCUUUCUCCAGGGAAAACCCUGGCAAUUUCAACAGCUCGCAGUCAAG”, 0.0627.
“GGUCACGUCUCAAUCAACUCAUCUUCCAGGGAAAGCCCUGGCAUAUUCAACAGCUCGCAGUCAAG”: the binding signal (log2 fold change) stood at 0.0473.
With “GGUCACGUCUCAAUCAACUCAUCUCCCAGGGAAAUCCCUGGCUUUCUCAACAGCUCGCAGUCAAG”, the binding signal (log2 fold change) turned out to be 0.164.
As for “GGUCACGUCUCAAUCAACUCUAUCCCCAGGGAAACCCCUGGUAUUCUCAACAGCUCGCAGUCAAG”, the binding signal (log2 fold change) was -0.241.
Consider “GGUCACGUCUCAAUCAACUCAUUUCCAGGAGUUUUCUCCUGCAUAUUCAACAGCUCGCAGUCAAG”, for which the binding signal (log2 fold change) was determined as 0.0114.
Take “GGUCACGUCUCAAUCAACUCAUCGCCAGGAGUUUUCUCCUGUAUAUUCAACAGCUCGCAGUCAAG”: the binding signal (log2 fold change) was determined as 0.0921.
Next, “GGUCACGUCUCAAUCAACUCAUUCCCAGGAGUUUACUCCUGCAUACUCAACAGCUCGCAGUCAAG”: 0.139; “GGUCACGUCUCAAUCAACUCUUUUUCAGGAGUUUACUCCUGCUAAUUCAACAGCUCGCAGUCAAG”: 0.184.
Regarding “GGUCACGUCUCAAUCAACUCUUCGCCCAGGGAAAACCCUGGUAAUUUCAACAGCUCGCAGUCAAG”, the binding signal (log2 fold change) was -0.174.
On to “GGUCACGUCUCAAUCAACUCACAAGAGGGGGGGAAAACCCCUUUGCCCUCGAUAUCAACAGCUCGCAGUCAAG”, for which the binding signal (log2 fold change) turned out to be 0.468.
Consider “GGUCACGUCUCAAUCAACUCAAUCCCCAGGGAAAGCCCUGGCAAUUUCAACAGCUCGCAGUCAAG”, for which the binding signal (log2 fold change) was -0.129.
Regarding “GGUCACGUCUCAAUCAACUCAAUAGAGGGGGGGAAAACCCCUUUACCCUCAUACUCAACAGCUCGCAGUCAAG”, the binding signal (log2 fold change) was -0.0281.
